What all share (conditions): both partners purified
For one assay, the target named is T1, kLANA(1013–1149) (Kaposi sarcoma-associated herpesvirus …, UniProt Q76SB0 1013-1149).
T1 construct: source: E. coli BL21(DE3), purified (Ni-NTA with guanidine gradient, thrombin cleavage)
T1 sequence: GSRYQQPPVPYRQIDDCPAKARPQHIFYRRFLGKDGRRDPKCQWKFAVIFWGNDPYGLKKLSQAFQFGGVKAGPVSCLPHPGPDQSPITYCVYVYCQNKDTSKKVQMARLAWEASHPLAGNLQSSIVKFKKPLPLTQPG
The assay can be described thus: NMR titration.

Assay [1] deals with T2, kLANA(996–1153) (Kaposi sarcoma-associated herpesvirus …, UniProt Q76SB0 996-1153).
T2 construct: source: E. coli BL21(DE3), purified (Ni-NTA with guanidine gradient, thrombin cleavage)
T2 sequence: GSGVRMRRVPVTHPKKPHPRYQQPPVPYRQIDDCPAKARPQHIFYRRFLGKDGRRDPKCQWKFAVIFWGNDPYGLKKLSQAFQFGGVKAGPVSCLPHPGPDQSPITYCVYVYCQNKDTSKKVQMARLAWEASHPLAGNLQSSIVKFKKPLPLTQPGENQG
The assay is described as follows: NMR titration.

Assay [2] has as its target T2, kLANA(996–1153). The assay is described as follows: NMR titration; [1H,15N]-HSQC of 0.25 mM BRD4 fragments without and with 0.25 mM unlabeled kLANA CTD at 100 mM NaCl.

B1: 15N-BRD4 ET([…]), with N-terminal GSGS (domain or fragment)
chain: not shown
notes: also called 15N-BRD4([…]); source: E. coli BL21(DE3), purified (Ni-NTA with guanidine gradient, thrombin cleavage)
As to B1, the binding result in the assay with kLANA(1013–1149) and in the assay with kLANA(996–1153) [1] was “binds” in each case.

B2: BRD4([…]) (domain or fragment)
chain: not shown
notes: also called 15N-labeled ET fragment lacking the serine stretch; source: E. coli BL21(DE3), purified (Ni-NTA with guanidine gradient, thrombin cleavage)
Take B2: in the assay with kLANA(996–1153) [2], the binding result is given as “binds”.

B3: BRD4 ET([…]), unlabeled, with N-terminal GSGGGPGS (domain or fragment)
chain: not shown
notes: also called BRD4([…]); BRD4 ET domain; source: E. coli BL21(DE3), purified (Ni-NTA with guanidine gradient, thrombin cleavage)
On to B3, for which the binding result in the assay with kLANA(1013–1149) is on record as “binds”.
